{"source": "paper PMC8639986", "about": "“Regulation of the EphA2 receptor intracellular region by phosphomimetic negative charges in the kinase-SAM linker” (Nature Communications, 2021)", "proteins": {"B1": {"name": "full-length EphA2 5A (S892A/S897A/T898A/S899A/S901A) labeled at the C-terminus with mTurquoise or EYFP (receptor, human)", "chain": "[about 500 residues not given here]IGGVAVGVVLLLVLAGVGFFIHRRRKNQRARQSPEDVYFSKSEQLKPLKTYVDPHTYEDPNQAVLKFTTEIHPSCVTRQKVIGAGEFGEVYKGMLKTSSGKKEVPVAIKTLKAGYTEKQRVDFLGEAGIMGQFSHHNIIRLEGVISKYKPMMIITEYMENGALDKFLREKDGEFSVLQLVGMLRGIAAGMKYLANMNYVHRDLAARNILVNSNLVCKVSDFGLSRVLEDDPEATYTTSGGKIPIRWTAPEAISYRKFTSASDVWSFGIVMWEVMTYGERPYWELSNHEVMKAINDGFRLPTPMDCPSAIYQLMMQCWQQERARRPKFADIVSILDKLIRAPDSLKTLADFDPRVAIRLPAAAGAEGVPFRTVSEWLESIKMQQYTEHFMAAGYTAIEKVVQMTNDDIKRIGVRLPGHQKRIAYSLLGLKDQVNTVGIPI", "notes": "EphA2 (ephrin type-A receptor 2), full length, five kinase-SAM linker phosphosites replaced by alanine; Both mTurquoise and EYFP forms were co-transfected for FRET; Only the EYFP form was used for FIF; also called EphA2 5A-EYFP; source: HEK293T, transiently transfected (pcDNA3), in the plasma membrane of live cells; not shown: mTurquoise or EYFP attached via a flexible linker (GGS)5, C-terminal, …"}, "B2": {"name": "full-length EphA2 5E (S892E/S897E/T898E/S899E/S901E) labeled at the C-terminus with mTurquoise or EYFP (receptor, human)", "chain": "[about 500 residues not given here]IGGVAVGVVLLLVLAGVGFFIHRRRKNQRARQSPEDVYFSKSEQLKPLKTYVDPHTYEDPNQAVLKFTTEIHPSCVTRQKVIGAGEFGEVYKGMLKTSSGKKEVPVAIKTLKAGYTEKQRVDFLGEAGIMGQFSHHNIIRLEGVISKYKPMMIITEYMENGALDKFLREKDGEFSVLQLVGMLRGIAAGMKYLANMNYVHRDLAARNILVNSNLVCKVSDFGLSRVLEDDPEATYTTSGGKIPIRWTAPEAISYRKFTSASDVWSFGIVMWEVMTYGERPYWELSNHEVMKAINDGFRLPTPMDCPSAIYQLMMQCWQQERARRPKFADIVSILDKLIRAPDSLKTLADFDPRVEIRLPEEEGEEGVPFRTVSEWLESIKMQQYTEHFMAAGYTAIEKVVQMTNDDIKRIGVRLPGHQKRIAYSLLGLKDQVNTVGIPI", "notes": "EphA2 (ephrin type-A receptor 2), full length, five kinase-SAM linker phosphosites replaced by glutamic acid; Both mTurquoise and EYFP forms were co-transfected for FRET; Only the EYFP form was used for FIF; also called EphA2 5E-EYFP; source: HEK293T, transiently transfected (pcDNA3), in the plasma membrane of live cells; not shown: mTurquoise or EYFP attached via a flexible linker (GGS)5, …"}}, "key": {"[1]": {"biological_target": "the molecule itself", "experiment": "fluorescence intensity fluctuation (FIF); molecular brightness distributions of EphA2-EYFP in the plasma membrane of HEK293T cells, no ligand; compared with published monomer (LAT) and dimer (E-cadherin) controls"}, "[2]": {"biological_target": "the molecule itself", "experiment": "fluorescence intensity fluctuation (FIF); molecular brightness distributions of EphA2-EYFP in the plasma membrane of HEK293T cells treated with 5.5 nM (saturating) ephrinA1-Fc; compared with published monomer (LAT) and dimer (E-cadherin) controls"}}, "data": [{"protein": "B1", "values": [{"measurement": "stoichiometry N", "setting": "[1]", "result": 2}]}, {"protein": "B2", "values": [{"measurement": "stoichiometry N", "setting": "[1]", "result": 2}, {"measurement": "stoichiometry N", "setting": "[2]", "result": "> 2"}]}]}
